# The campaign covered roughly 310,000 compounds. About 14,000 (4.5%) showed an effect of 50% or more. Effects have a minus sign here. The list shows a part of the results.
# Molecular target: human ether-à-go-go-related gene (hERG) potassium channel (human, UniProt Q12809)
# Test: primary screen, population patch clamp on CHO cells stably expressing hERG
# 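Further: peak tail current of the secondary pulse compared with the same well before compound.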
# Sequence of human ether-à-go-go-related gene (hERG) potassium channel (Q12809 whole entry, looked up): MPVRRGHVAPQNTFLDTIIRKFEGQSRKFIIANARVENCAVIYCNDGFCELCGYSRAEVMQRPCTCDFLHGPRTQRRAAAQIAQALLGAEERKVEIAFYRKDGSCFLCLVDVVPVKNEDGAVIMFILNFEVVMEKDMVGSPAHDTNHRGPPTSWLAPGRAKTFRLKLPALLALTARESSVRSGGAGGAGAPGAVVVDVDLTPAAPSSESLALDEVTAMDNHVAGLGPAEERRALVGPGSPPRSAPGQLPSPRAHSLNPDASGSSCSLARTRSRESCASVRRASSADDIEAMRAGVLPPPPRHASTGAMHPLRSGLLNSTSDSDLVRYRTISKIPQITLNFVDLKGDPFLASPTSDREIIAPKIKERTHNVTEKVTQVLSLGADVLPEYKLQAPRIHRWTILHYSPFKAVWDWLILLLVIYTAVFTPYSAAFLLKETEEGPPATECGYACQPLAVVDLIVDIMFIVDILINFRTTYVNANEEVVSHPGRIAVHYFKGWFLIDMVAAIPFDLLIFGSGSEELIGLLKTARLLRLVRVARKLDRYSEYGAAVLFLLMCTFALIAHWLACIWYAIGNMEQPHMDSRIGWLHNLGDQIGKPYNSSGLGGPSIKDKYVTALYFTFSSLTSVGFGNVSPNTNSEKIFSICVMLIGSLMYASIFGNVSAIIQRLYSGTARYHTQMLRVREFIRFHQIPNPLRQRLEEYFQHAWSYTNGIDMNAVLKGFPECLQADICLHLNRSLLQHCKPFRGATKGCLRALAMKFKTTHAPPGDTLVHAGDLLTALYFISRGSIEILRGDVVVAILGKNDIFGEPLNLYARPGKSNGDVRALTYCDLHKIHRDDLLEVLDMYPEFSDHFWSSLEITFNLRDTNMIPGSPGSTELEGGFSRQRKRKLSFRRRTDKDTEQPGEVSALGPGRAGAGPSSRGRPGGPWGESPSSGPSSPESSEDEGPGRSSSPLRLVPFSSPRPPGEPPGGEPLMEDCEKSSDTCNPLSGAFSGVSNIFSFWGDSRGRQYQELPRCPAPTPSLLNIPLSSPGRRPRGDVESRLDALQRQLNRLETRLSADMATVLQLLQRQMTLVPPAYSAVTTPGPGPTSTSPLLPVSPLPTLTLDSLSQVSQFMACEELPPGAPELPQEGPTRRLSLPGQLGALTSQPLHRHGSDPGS
row,SMILES,"hERG current change (%, negative = inhibition) at 10uM [%]"
1,COc1ccccc1N(CCN1C(=O)c2cccc3cccc(c23)C1=O)C(=O)c1ccncc1,16.3
2,CC(=O)c1ccc(OCc2cc(C(=O)NCCc3ccc(Cl)cc3)no2)cc1,-29.7
3,COc1cccc(N(C(=O)Cn2nnc(-c3cccs3)n2)C(C(=O)NC2CCCCC2)c2ccncc2)c1 (centres unmarked),8
4,Cc1ccc(N(CC(=O)NC2CCCC2)C(=O)CCC(=O)Nc2nccs2)cc1C,14.2
5,CCCCCCN1C=CC=C/C1=C/C=C(C#N)C#N,-76.5
6,Cc1nn(-c2ccccc2)c(Cl)c1CN(C(=O)CCl)c1cccc2ccccc12,-29
7,COc1ccc(-c2nc3c(=O)n(C)c(=O)[nH]c3n2CCc2ccccc2)cc1,22.1
8,Cc1c2ccccc2cc(Cc2ccccc2)[n+]1C.[I-],11.4
9,COc1ccc(-c2nc(CS(=O)CC(=O)NCCCN3CCCC(C)C3)c(C)o2)cc1OC (centres unmarked),13.8
10,CN(C)c1ccc(C(=O)/C=C/c2ccc(Br)cc2)cc1,7.69
11,O=C(CCOc1ccccc1)Nc1ccnn1C1CCN(Cc2ccc(O)cc2)CC1,-31.3
12,CNC(=O)Cc1csc2ccc(Cl)cc12,17.8
13,COc1ccc(S(=O)(=O)CCC(=O)N2c3ccccc3CC2C)cc1 (centres unmarked),-16.9
14,O=C(c1cccc(Cl)c1)C1CCCN(C(=O)c2ccoc2)C1 (centres unmarked),-36
15,O=C(CN1CCN(S(=O)(=O)c2ccccc2C(F)(F)F)CC1)NCc1cccs1,-68.1
16,Nc1c(C(=O)N2CCOCC2)sc(=S)n1-c1ccccc1,4.13
17,COc1cccc(Nc2ncnc3onc(-c4ccccc4OC)c23)c1,-4.9
18,Cc1ccc(OCC(=O)N/N=C/c2cccnc2)cc1C,-3.09
19,O=C(COc1ccc(Br)cc1)NN1C(=O)c2ccccc2C1=O,4.3

row,SMILES,"hERG current change (%, negative = inhibition) at 10uM [%]"
1,C/C(N)=C(/C#N)C(=O)COC(=O)c1ccccc1Cc1ccccc1,16.2
2,CCOC(=O)/C(C#N)=C/C1=C(N2CCCC2)CC(C)(C)OC1,-6.24
3,O=C(Nc1ccccn1)c1ccc(Cl)c(S(=O)(=O)N2CCCC2)c1,-7.69
4,Cc1ccc(C(=O)COc2ccccc2-c2ccccc2)cc1C,5.71
5,CC(=O)c1ccc(OCc2cc(C(=O)N(C)C(C)c3ccon3)no2)cc1 (centres unmarked),3.58
6,Cc1cc(C)n(C(C)CC(=O)N2CCc3ccccc32)n1 (centres unmarked),5.2
7,Cc1cccc(/C=C/c2nc3ccccc3c(=O)[nH]2)c1,-11
8,O=C(Nc1ccc(NC(=O)C2CC2)nc1)c1ccncc1,1.23
9,CCCCCCNC(=O)C(C(=O)OCC)C1CCCCC1 (centres unmarked),-4.59
10,NC(=O)c1sc2nc3c(c(-c4cccs4)c2c1N)CCCCC3,-4.46
11,O=C(NC(N1CCOCC1)C(Cl)(Cl)Cl)c1ccco1 (centres unmarked),13
12,Cn1nnnc1Sc1ncnc2scc(-c3ccc([N+](=O)[O-])cc3)c12,-44.3
13,COc1ccc(OC)c2[nH]c(=O)c(CCNC(=O)C(=O)c3c(C)[nH]c4ccccc34)cc12,-1.04
14,CCOC(=O)c1c(C)[nH]c(C(=O)CN2C(=O)NC(C)(CC(C)C)C2=O)c1C (centres unmarked),13.2
15,CCN1CCN(S(=O)(=O)c2ccc(Cl)nc2)CC1,0.409
16,CC(C)CC(=O)N1CCC(N2CCN(c3ccccc3)CC2)CC1,-12
17,CC(=O)Nc1ccc(Nc2ccc(N3C(=O)CCCC3=O)cc2[N+](=O)[O-])cc1,8.22
18,CC(NC(=O)c1ccc(N2CCNCC2)c([N+](=O)[O-])c1)C12CC3CC(CC(C3)C1)C2 (centres unmarked),-27.6
19,CCCN(CCC)CCCNC(=O)c1cc2c(=O)n(CC)c3ccccc3c2s1,-29.8

row,SMILES,"hERG current change (%, negative = inhibition) at 10uM [%]"
1,O=C(CCNC(=O)C1CCN(S(=O)(=O)c2ccccc2)CC1)NCCc1cccc(F)c1,-12.2
2,Cc1ccc(NC(=O)CN(C)C(=O)CSc2nc3ccccc3o2)cc1,-20.5
3,O=C(CSCc1ccc(Cl)cc1)N/N=C/c1c(Cl)cccc1Cl,6.33
4,COc1ccc(OC)c(NC(=O)C2CCC(CNc3c(N4CCC(C)CC4)c(=O)c3=O)CC2)c1 (centres unmarked),17
5,COc1cc(OC)cc(-c2nc3ccccc3c(=O)n2OC(=O)c2ccc(C)c(C)c2)c1,0.86
6,CCOc1ccc(CN2C(=O)CC(=O)N(S(=O)(=O)c3ccc(OCC)cc3)C2=O)cc1,11.9
7,CCCCOC(=O)Cn1c2ccc(OC)cc2c2nc3ccccc3nc21,-6.29
8,COc1ccc(Nc2ccc3c(c2)=NC2(CCCCC2)[N+]=3[O-])cc1,-25.1
9,CCOC(=O)NC(=O)/C(C#N)=C\Nc1sccc1C(=O)OC,-18.1
10,COC(=O)CN1C(=S)N(c2ccc(Cl)cc2)C(=O)C1CC(=O)Nc1ccc(F)cc1 (centres unmarked),-14.6
11,Cc1ccc(N=Nc2ccc(O)c(/C=N\NC(=O)c3ccc(N)cc3)c2)cc1C,6.55
12,CC(C)(C)OC(=O)N1CCN(c2ccc(NC(=O)Cn3nnc(-c4ccccc4)n3)cc2)CC1.Cl,3.22
13,Cc1cc(=O)n(-c2ccc(Cl)cc2)c(=O)[nH]1,19
14,CCc1ccc(CN2CCSCC2)cc1,7.39
15,Cc1cc(N)c2cc(NC(=O)/C=C/c3ccccc3Cl)ccc2n1,-46.5
16,CCCCc1c(O)nc(SCC(=O)c2ccccc2)[nH]c1=O,-2.4
17,CCCn1c(SCC(=O)N(CC)CC)nnc1-c1ccncc1,13.3
18,Cc1sc(N)nc1-c1ccc2c(c1)OCCO2,-9.45
